# Measurements reported in PubChem BioAssay AID1345082 (National Center for Advancing Translational Sciences (NCATS), 2018).
# Values joined by “and” are separate entries in the source; they are usually repeats but may differ in a detail not shown here. Equal values may be shown once. Among all 94,000 compounds or so, about 4,000 (4.3%) were called active. Inconclusive means that the source gave no clear call. Such entries were picked first, then a sample of the others. The call rests on the fitted dose curve; in most records, active means well fitted inhibition curve with a large enough effect; inconclusive means small, poorly fitted or top-dose-only effect; inactive means no such curve, though single readings can be large or run the other way. Potencies of inconclusive entries are doubtful fits and often do not repeat.
# Assay: Cytotoxic Profiling in NIH 3T3 Cell Line of Diverse Libraries Using Quantitative High-Throughput Screening; further: nearly all actives have a fitted effect of over 55% in size
# Details: NIH 3T3 viability, CellTiter-Glo ATP luminescence, 48-72 h; series mostly up to 96.7 µM
# Method in brief: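 Cells were seeded at 400 per well, treated with pin-transferred compound, and kept 48 or 72 hr at 37 °C before CellTiter-Glo addition and luminescence imaging of cellular ATP.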
# Potency means the concentration at half of the fitted maximal effect; tags describe the fitted curve by direction and shape.
row,SMILES,Potency
1,CSc1cccc(NC(=O)N[C@H]2C[C@@H](C(=O)N[C@H](Cc3c[nH]c4ccccc34)C(N)=O)N(C(=O)c3cccn3C)C2)c1,inactive
2,O=C(C[C@H]1NC(=O)c2ccccc2NC1=O)NCCc1nc(-c2ccccc2)cs1,inactive
3,COc1ccc(-c2noc([C@@H]3C[C@@H](O)CN3Cc3cccnc3)n2)cc1,"inconclusive: 10 µM [inhibitor, full curve, poor fit]"
4,CC(=O)N1CCC(N2CCC(Cc3ccc(CCC(=O)N(C)C)cc3)CC2)CC1,inactive
5,O=C(O)c1ccc(-c2ncc3cnc(C4=CCOCC4)cn23)cc1,"inconclusive: 112 µM [inhibitor, single point]"
6,COc1ccc(CC(=O)Nc2ccc(=O)n3c2[C@@H]2C[C@@H](CN(S(=O)(=O)c4ccc(OC)cc4)C2)C3)cc1,"inconclusive: 79.4 µM [inhibitor, partial curve, poor fit]"
7,CCOC(=O)c1ccccc1NC(=O)CN1C(=O)NC(c2ccc(C)cc2)C2=C1COC2=O (centres undefined),"inconclusive: 39.8 µM [inhibitor, partial curve, poor fit]"
8,O=C(c1cc(F)ccc1Cl)N1CCC(Cc2nc(-c3ccc(F)cc3)no2)CC1,"inconclusive: 11.2 µM [inhibitor, full curve, poor fit]"
9,Cc1ccc(SC2CCN(Cc3cc4n(n3)CCNC4)CC2)cc1,active: 14.1 µM
10,O=C(CCC(F)(F)F)N1CCC(CCC(=O)N2CCC(Cc3ccccc3)CC2)CC1,"inconclusive: 44.7 µM [inhibitor, partial curve, poor fit]"
11,CN1C[C@@H](NC(=O)c2ccc3ccccc3c2)C[C@H]1c1nc(-c2ccc3c(c2)OCO3)no1,inactive
12,O=C(C1CCCN([S+](=O)([O-])c2cccs2)C1)N1CCCC(c2nc3ccncc3[nH]2)C1 (centres undefined),inactive
13,CCS(=O)(=O)N1CC(F)(F)C[C@H]1c1nc(-c2cccnc2)no1,inactive
14,O=C(CC1CCOC2(CCN(C3CCN(Cc4ccccc4)CC3)CC2)C1)N1CCCC1 (centres undefined),"inconclusive: 35.5 µM [inhibitor, partial curve, poor fit]"
15,O=C1N(CCc2ccccc2)c2ccccc2C12CCN(Cc1ccncc1)C2 (centres undefined),"active: 35.5 µM and inconclusive: 31.6 µM [inhibitor, partial curve]"
16,CCC(=O)N(C1CCOCC1)C1CCN(S(=O)(=O)c2cc(C)ccc2C)CC1,inactive
17,Cc1nc2cccnc2n1CC1CCCN(S(=O)(=O)c2cc(F)ccc2F)C1 (centres undefined),"inconclusive: 50.1 µM [inhibitor, single point]"
18,Cc1noc(C)c1[S+](=O)([O-])N1CCc2nc(C(C)C)nc(-c3ccc(O)cc3)c2C1,"inconclusive: 50.1 µM [inhibitor, partial curve, poor fit]"
19,CCOC(=O)N1CCC(=O)N(CCOC)C[C@H]2CN(C)c3ccccc3[C@@H]21,"inconclusive: 31.6 µM [inhibitor, partial curve, poor fit]"
20,Cc1nn(Cc2ccccc2)c(C)c1[C@@H]1C=C[C@@H](NC(=O)c2ccc(F)c(Cl)c2)C1,"inconclusive: 22.4 µM [inhibitor, full curve, poor fit]"
21,CC(=O)N1CCc2cc(S(=O)(=O)NCCCC(=O)N3CCC(CCOc4ccccc4)C3)ccc21 (centres undefined),"inconclusive: 5.01 µM [inhibitor, full curve, poor fit]"
22,Cc1cc(OC2CN([S+](=O)([O-])c3ccccc3)C2)ccc1F,"inconclusive: 100 µM [inhibitor, single point]"

row,SMILES,Potency
1,COc1ccc(N2CC(c3noc(-c4ccc(Cl)cc4)n3)CC2=O)cc1 (centres undefined),"inconclusive: 50.1 µM [inhibitor, partial curve, poor fit]"
2,CN(Cc1ccc(-c2ccccc2)cc1)Cc1ccc(N(C)C)cc1,inactive
3,CC1=C[C@@H](CN2CCC(O)CC2)[C@H](C(C)C)C[C@H]1Cc1nnc(-c2ccc(N(C)C)cc2)o1,active: 39.8 µM
4,O=c1[nH]c(C2CCCN(Cc3ccccc3C(F)(F)F)C2)nn1-c1ccccc1 (centres undefined),"inconclusive: 44.7 µM [inhibitor, partial curve, poor fit]"
5,CCc1[nH]c2c(CNC(=O)CC3C(=O)NCCN3C(C)C)cc(C)cc2c1C (centres undefined),inactive
6,CCC1=C(C(=O)OC)C(c2cccc(F)c2)N2C(CC(=O)NCc3cccc(F)c3)=CSC2=N1 (centres undefined),"inconclusive: 70.8 µM [inhibitor, single point]"
7,Cc1cccc(C(=O)N[C@H]2CN(CCS(C)(=O)=O)C[C@@H]2C(C)C)c1,inactive
8,NC(=O)[C@@H]1CN(C(=O)c2cccc3c2OC(F)(F)O3)[C@H]2c3ccccc3O[C@@H]12,"inconclusive: 70.8 µM [inhibitor, single point]"
9,O=C(Cc1c[nH]c2ncc(-c3cccnc3)cc12)Nc1ccc(C(F)(F)F)cc1,"inconclusive: 56.2 µM [inhibitor, partial curve, poor fit]"
10,CSc1ccc(-c2cccc(C(=O)NCCNC(=O)c3ccccc3)c2)cc1,inactive
11,O=c1c2c(CO)c(-c3ccccc3)nn2ccn1Cc1ccccc1Cl,"inconclusive: 50.1 µM [inhibitor, partial curve, poor fit]"
12,O=C1c2cc(N3CCOCC3)nc(-c3ccccc3)c2CN1Cc1ccccc1,active: 31.6 µM
13,CNC(=O)[C@H]1CN(C(=O)NCc2ccccc2)[C@]2(C)C(=O)N(CC3CC3)c3ccccc3[C@H]12,"inconclusive: 31.6 µM [inhibitor, partial curve, poor fit]"
14,Cc1cccc(C(=O)N2CCC3(CC2)N=C(c2cccc(Br)c2)NO3)c1,"inconclusive: 50.1 µM [inhibitor, partial curve, poor fit]"
15,CN1c2cc(C(=O)NCc3ccc(Cl)cc3)ccc2C(=O)N2CCCCCC21 (centres undefined),"inconclusive: 70.8 µM [inhibitor, single point]"
16,O=C(Cc1ccccc1)N1CCCCCC1c1nnc(-c2ccccc2)o1 (centres undefined),inactive
17,Cc1ccc(C(=O)N2CCC(N3C(=O)c4c(c(C)nn4-c4ccccc4)C3C(C)C)C2)cc1 (centres undefined),"inconclusive: 35.5 µM [inhibitor, partial curve]"
18,C#CCNC(=O)c1nc(-c2cccnc2)c2cnccn12,inactive
19,O=C(NC1CCN(c2ccc3nnc(-c4ccccc4)n3n2)C1)c1ccccc1F (centres undefined),"inconclusive: 50.1 µM [inhibitor, partial curve, poor fit]"
20,O=C(NCc1cccc(F)c1)C1Cn2cccc2C(=O)N1Cc1cccnc1 (centres undefined),inactive
21,Cc1ccc(C(=O)N2CCN(c3cc(-c4ccc(Cl)cc4)[nH]n3)CC2)cc1F,"inconclusive: 22.4 µM [inhibitor, partial curve, poor fit]"
22,c1cc(-c2ccsc2)n2nc(C3CCC3)nc2n1,"inconclusive: 44.7 µM [inhibitor, partial curve, poor fit]"

row,SMILES,Potency
1,COC(=O)[C@@H]1Cc2ncn(Cc3ccc(Cl)cc3)c2CN1CCCc1ccccc1,inactive
2,CC(C)c1noc(-c2cccn3c(CNC(=O)C4CCCCC4)nnc23)n1,inactive
3,COCCCNC(=O)N1CCC(F)(c2nc(CC(C)C)no2)CC1,inactive
4,Cc1cc(C(=O)NCc2c[nH]c3ncccc23)ccc1Cl,"inconclusive: 63.1 µM [inhibitor, partial curve, poor fit]"
5,CN1c2cc(C(=O)Nc3cccc(F)c3)ccc2C(=O)N2CCCCC21 (centres undefined),inactive
6,Cc1nnc(-c2cc(-c3ccnn3C)ccn2)n1-c1ccccc1,"inconclusive: 79.4 µM [inhibitor, partial curve, poor fit]"
7,C[S+](=O)([O-])N1C2CCC1CN(c1ccc(C(F)(F)F)cc1)C2,"inconclusive: 44.7 µM [inhibitor, partial curve, poor fit]"
8,Cc1ccc(C(=O)N2CC(c3nnc(-c4ccncc4)o3)C3(CCOCC3)C2)s1 (centres undefined),inactive
9,CN(Cc1ccccn1)Cc1cccn1C,inactive
10,CCOC(=O)C1(Cc2ccc(F)cc2)CCCNC1 (centres undefined),inactive
11,CC1CCN(C(=O)C[C@@H]2c3nc(NC(=O)c4c(F)cccc4F)sc3C[C@@H]3[C@](C)(CO)[C@H](O)CC[C@]32C)CC1,"inconclusive: 50.1 µM [inhibitor, partial curve, poor fit]"
12,Cc1ccc(C(=O)N2C[C@@H](Oc3cccnc3)C[C@H]2C(=O)N2CCCC2)s1,"inconclusive: 70.8 µM [inhibitor, single point]"
13,Cc1cc(CN2CCn3c(nnc3-c3ccccc3)C2)no1,"inconclusive: 89.1 µM [inhibitor, single point]"
14,CN1C[C@H](C(=O)Nc2ccccc2)C[C@H]1c1cccc(C(F)(F)F)c1,active: 44.7 µM
15,Cc1cccc(C)c1NC(=O)Cn1ccn2nc(-c3ccc(F)cc3)c(CO)c2c1=O,inactive
16,COc1ccc(C(C)NC(=O)c2ccc(Cn3ccn4nc5c(c4c3=O)CCCC5)cc2)cc1OC (centres undefined),"inconclusive: 35.5 µM [inhibitor, partial curve]"
17,Cn1ncc2c(C(=O)NCc3ccccc3)cc(-c3ccccc3F)nc21,"inconclusive: 35.5 µM [inhibitor, partial curve, poor fit]"
18,O=C(Nc1ccc(C2(C(=O)NCc3ccc(F)cc3Cl)CCC2)cc1)C1CC1,"inconclusive: 50.1 µM [inhibitor, partial curve, poor fit]"
19,CCN1C(=O)CCc2cc(NS(=O)(=O)c3cn(C)c(C)n3)ccc21,inactive
20,COc1cccc(CN2CCNc3cnc(-c4ccccc4)cc3C2)c1,"inconclusive: 89.1 µM [inhibitor, partial curve]"
